# In all, about 230,000 compounds went through this assay and about 3,600 (1.6%) were called active. The shares of active, inactive and inconclusive entries below differ from those in the screen. The call rests on the fitted dose curve; in most records, active means well fitted inhibition curve with a large enough effect (not every such curve was filed as active); inconclusive means small, poorly fitted or top-dose-only effect, or another doubt; inactive means no such curve, though single readings can be large or run the other way. A potency beside an inconclusive call is a rough fit, not a confirmed value.
# Target: Lysine-specific demethylase 4E (Homo sapiens) (UniProt B2RXH2)
# UniProt B2RXH2, sequence (B2RXH2 whole entry, looked up, the tested form may be a part): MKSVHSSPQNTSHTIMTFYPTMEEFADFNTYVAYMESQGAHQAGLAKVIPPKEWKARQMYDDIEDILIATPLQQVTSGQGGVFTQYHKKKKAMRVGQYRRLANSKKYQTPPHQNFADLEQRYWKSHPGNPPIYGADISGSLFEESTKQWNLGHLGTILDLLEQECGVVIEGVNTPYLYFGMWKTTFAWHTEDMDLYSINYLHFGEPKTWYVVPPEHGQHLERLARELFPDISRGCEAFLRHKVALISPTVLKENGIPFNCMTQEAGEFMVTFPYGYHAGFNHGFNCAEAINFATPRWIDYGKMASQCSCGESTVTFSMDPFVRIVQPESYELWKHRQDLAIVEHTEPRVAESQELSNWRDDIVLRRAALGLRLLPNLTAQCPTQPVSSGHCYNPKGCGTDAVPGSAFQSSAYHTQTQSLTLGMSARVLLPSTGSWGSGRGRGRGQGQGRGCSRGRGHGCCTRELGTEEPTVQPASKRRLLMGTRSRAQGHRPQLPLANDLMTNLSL
# Assay: qHTS Assay for Inhibitors of Human Jumonji Domain Containing 2E (JMJD2E)
# Settings: JMJD2E catalytic domain, FDH-coupled NADH fluorescence (FDH is formaldehyde dehydrogenase); series mostly up to 57.1 µM; activity change, negative = inhibition: at the top concentration
# Further: nearly all actives have a fitted effect of over 50% in size.
# Potency means the concentration at half of the fitted maximal effect; tags describe the fitted curve by direction and shape.
# 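Wherever activity change, negative = inhibition is given: 0% = wells with enzyme and -100% = buffer wells without enzyme.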
Structure (SMILES),"activity change, negative = inhibition",Potency
CC/C(O)=C1\C(=O)CC(c2ccccc2)CC1=NC(C)C (configuration not stated),inactive: -2.82%,
COc1ccc2nc(C)cc(Sc3nc4ccccc4s3)c2c1,,"inconclusive: 2 µM [inhibitor, partial curve]"
Cc1csc2ncc(C(=O)NCc3ccccn3)c(=O)n12,,"inconclusive: 28.2 µM [inhibitor, partial curve]"
CCSc1nnc(NS(=O)(=O)c2ccc(OC)cc2)s1,inactive: -0.97%,
O=c1c(OC2OC(CO)C(O)C(O)C2OC2OC(CO)C(O)C(O)C2OC2OC(CO)C(O)C(O)C2O)c(-c2ccc(O)c(O)c2)oc2cc(O)cc(O)c12 (configuration not stated),,active: 14.1 µM
CC1CCC2C(C1)Nc1c(C(=O)O)cccc1C2(C)C (configuration not stated),,"inconclusive: 10 µM [inhibitor, partial curve]"
CN(C)c1oc(-c2ccc(OCc3ccc(Cl)cc3)cc2)nc1C#N,,"inconclusive: 1.78 µM [inhibitor, partial curve]"
CC(OC(=O)c1ccccc1O)C(=O)Nc1cccc(Cl)c1 (configuration not stated),,"inconclusive: 35.5 µM [inhibitor, single point]"
COCc1cc(C)nc(OCC(=O)N/N=C\c2cc(C)n(-c3cccc(C(F)(F)F)c3)c2C)c1C#N,,"inconclusive: 35.5 µM [inhibitor, partial curve]"
CN1CCN(CCCNC(=O)c2cc3c(-c4ccc(Cl)cc4)nn(C)c3s2)CC1,,"inconclusive: 31.6 µM [inhibitor, partial curve]"
COc1ccc(/C=C/C(=O)c2ccccn2)cc1,,"inconclusive: 22.4 µM [inhibitor, partial curve]"
Nc1cc(C(F)(F)F)ccc1C(=O)O,,"inconclusive: 31.6 µM [inhibitor, partial curve]"
Cc1cnn(-c2nc(-c3ccccc3)cc(-c3ccccc3)n2)c1,,"inconclusive: 35.5 µM [inhibitor, single point]"
CCc1ccc[n+](-c2nc3ccccc3nc2C(=C=[N-])C#N)c1,,"inconclusive: 39.8 µM [inhibitor, single point]"
COc1ccc(-c2nc3n(c2C)CCC3)cc1,inactive: 2.79%,
Cc1ccc(C(=O)c2sc3nc4c(cc3c2N)CCC4)cc1,inactive: 4.54%,
Cc1cc2nc3c(=O)n(Cc4ccccc4)c(=O)[nH]c3nc2cc1N,,"inconclusive: 17.8 µM [inhibitor, partial curve, poor fit]"
COCC(=O)Nc1ccc(-c2cn3cccnc3n2)cc1,,"inconclusive: 25.1 µM [inhibitor, partial curve]"
Cc1ccc(C(=O)C[n+]2cccc3cc(C)ccc32)cc1,,"inconclusive: 28.2 µM [inhibitor, single point]"
Cn1c(SCC(=O)N2CCc3ccccc32)nnc1-c1ccc(S(=O)(=O)N2CCCC2)cc1,,"inconclusive: 7.08 µM [inhibitor, single point]"
O=C(COC(=O)CCN1C(=O)c2ccccc2C1=O)Nc1ccc(S(=O)(=O)N2CCCC2)cc1,inactive: 1.01%,
COc1cc(C(=O)N/N=C/c2cc([N+](=O)[O-])cs2)cc(OC)c1OC,inactive: 4.38%,
O=C1CCCN1c1ccc(S(=O)(=O)N2CCCCC2)cc1[N+](=O)[O-],inactive: 5.85%,
CCOC(=O)N1CCN(Cc2oc(CO)cc(=O)c2O)CC1,,"inconclusive: 28.2 µM [inhibitor, single point]"

Structure (SMILES),"activity change, negative = inhibition",Potency
Cc1cccc(Nc2n[nH]c(=S)s2)c1C,,active: 12.6 µM
CN(Cc1ccccc1)S(=O)(=O)c1ccc2[nH]cc(C(=O)NCC3CCCO3)c(=O)c2c1 (configuration not stated),,"inconclusive: 28.2 µM [inhibitor, single point]"
O=C(NNC(=O)c1cc(-c2ccccc2)n(-c2ccccc2)n1)c1cccc([N+](=O)[O-])c1,,"inconclusive: 39.8 µM [inhibitor, single point]"
CCOc1ccc(-c2cc(C(=O)NCCCn3ccnc3)c3ccccc3n2)cc1,,"inconclusive: 25.1 µM [inhibitor, partial curve]"
CCCCc1cc(=O)oc2cc(O)cc(O)c12,,"inconclusive: 28.2 µM [inhibitor, partial curve]"
COc1ccc(OC)c(NC(=O)c2cc3n(n2)C(C(F)(F)F)CC(c2ccc4c(c2)OCO4)N3)c1 (configuration not stated),,"inconclusive: 39.8 µM [inhibitor, single point]"
C=CCC(C)(O)CCc1ccccc1 (configuration not stated),inactive: -2.18%,
N#CCCNC(=O)CCN1CCOCC1,inactive: -16.4%,
Cc1ccc(Oc2ccc(S(=O)(=O)N3CCOCC3)cc2C(N)=O)c(-n2nc3ccccc3n2)c1,,"inconclusive: 31.6 µM [inhibitor, partial curve]"
COc1ccc(CCNc2nc3ccccc3n3cnnc23)cc1OC,,"inconclusive: 35.5 µM [inhibitor, single point]"
N#Cc1nc(-c2cccs2)oc1N1CCN(Cc2ccccc2)CC1,,"inconclusive: 28.2 µM [inhibitor, partial curve]"
CC(=O)OC1CCC2(C)C(COc3ccc4ccc(=O)oc4c3)C(C)(O)CCC2C1(C)C (configuration not stated),,"inconclusive: 31.6 µM [inhibitor, partial curve]"
COc1ccc(-c2nc(-c3ccccc3)c(-c3cccs3)[nH]2)cc1OC,,"inconclusive: 31.6 µM [inhibitor, partial curve]"
COc1cccc(NC(=O)C2CCN(Cc3cnn(-c4ccccc4)c3-n3cccc3)CC2)c1,,"inconclusive: 31.6 µM [inhibitor, single point]"
CCOc1ccc2nc(N/C(N)=N/C(=S)Nc3cccc(C)c3)nc(C)c2c1,,"inconclusive: 39.8 µM [inhibitor, single point]"
Cc1ccc(-c2cc(C(=O)Nc3cc(C)ccc3C)[nH]n2)c(O)c1,inactive: -6.3%,
COc1cc(/C=C/C(=O)NC(C)(C)C)ccc1OCc1ccccc1,,"inconclusive: 35.5 µM [inhibitor, partial curve]"
N#Cc1nc(COc2ccc(F)cc2)oc1N1CCCC1,inactive: 11.6%,
Cc1ccc(-c2cn3cccnc3n2)cc1NC(=O)c1c(-c2ccccc2Cl)noc1C,,"inconclusive: 31.6 µM [inhibitor, partial curve]"
O=C(CCCSc1nc2ccccc2[nH]1)NC1CCCCC1,inactive: 5.55%,
CC1(C)CC(=O)c2sc(NS(=O)(=O)Cc3ccccc3)nc2C1,inactive: 1.82%,
Cc1cccc(OCC(=O)NNC(=O)Nc2cccc(Cl)c2)c1C,inactive: 0.0925%,
CCOc1ccccc1Nc1nc(-c2sc(NC(=O)c3ccccc3)nc2C)cs1,,"inconclusive: 25.1 µM [inhibitor, single point]"
CCC(CC)C(=O)c1c[nH]c(C(=O)N2CCN(c3ccccc3F)CC2)c1,inactive: 2.47%,

Structure (SMILES),"activity change, negative = inhibition",Potency
CCCN1CCN(CCCNC(=O)c2cc3c(=O)[nH]c4ccccc4c3s2)CC1,,"inconclusive: 31.6 µM [inhibitor, partial curve]"
CCOc1ccc(C2C=C(c3ccc(F)cc3)Nc3ncnn32)cc1 (configuration not stated),,"inconclusive: 28.2 µM [inhibitor, partial curve]"
Cc1ccc(S(=O)(=O)n2cnc3cc([N+](=O)[O-])ccc32)cc1C,inactive: -2.58%,
O=C(O)Cc1ccc(NC(=O)c2ccc(Cl)c(Cl)c2)cc1,,"inconclusive: 4.47 µM [inhibitor, single point]"
COc1cc2c(cc1OC)C(c1ccc(-c3ccc(Cl)c(Cl)c3)o1)=NCC2,inactive: -15.4%,
COc1ccccc1CNc1ccc(N2CCCCC2)cc1,,active: 20 µM
Cc1ccc(/C(O)=C2/C(=O)C(=O)N(CCN3CCOCC3)C2c2ccccn2)cc1 (configuration not stated),,"inconclusive: 25.1 µM [inhibitor, single point]"
CC1C2=C(CC(C)(C)CC2=O)NC2=C1C(=O)CC(C)(C)C2,,"inconclusive: 31.6 µM [inhibitor, partial curve]"
CCCCOc1ccc(C(=O)N/N=C/c2ccc(OCCN3CCCCC3)c(OC)c2)cc1,,"inconclusive: 39.8 µM [inhibitor, single point]"
COc1ccc(CC(CC(=O)O)C(=O)NCc2ccccc2)cc1 (configuration not stated),inactive: 7.66%,
Brc1cccc(-c2nnc(SCc3nc4ccccc4[nH]3)o2)c1,,"inconclusive: 39.8 µM [inhibitor, single point]"
CCC(=O)Nc1sc(C(=O)OC)c(C)c1C(=O)OC,inactive: -1.85%,
O=C(CNc1ccccc1C(=O)O)c1ccccc1,,"inconclusive: 28.2 µM [inhibitor, partial curve]"
CCN1C(=O)/C(=C/c2ccc(N3CCCC3)cc2)NC1=S,inactive: -2.38%,
CN1C(=O)C(c2nnc(Nc3cccc4ccccc34)s2)C2CC1(C)Oc1ccccc12 (configuration not stated),inactive: -1.18%,
Cc1ccc(OCC(O)Cn2c3ccccc3c3ccccc32)cc1 (configuration not stated),,"inconclusive: 39.8 µM [inhibitor, single point]"
Cc1cc(N)n(-c2ncnc3scc(-c4ccccc4)c23)n1,,"inconclusive: 39.8 µM [inhibitor, single point]"
CC(C)(C)c1ccc(S(=O)(=O)NCC(=O)Nc2ccc(-c3nc4ccccc4s3)cc2)cc1,,"inconclusive: 25.1 µM [inhibitor, partial curve]"
NS(=O)(=O)c1ccc(NCc2ccccc2OCc2ccc(F)cc2)cc1,inactive: -2.84%,
COCc1cc(C)nc2sc(C(=O)Nc3nccs3)c(N)c12,,"inconclusive: 39.8 µM [inhibitor, single point]"
CCOC(=O)C1C(=O)OC(C)(C)C1C(C)C(=O)c1ccc(C)cc1C (configuration not stated),,"inconclusive: 39.8 µM [inhibitor, single point]"
O=C(NC1CCCCC1)c1cccnc1C(=O)O,,"inconclusive: 31.6 µM [inhibitor, single point]"
CC(Nc1ccccc1)c1ccncc1 (configuration not stated),inactive: -4.96%,
NC(=O)C1CCN(C(=O)CN2CCCc3ccccc32)CC1,,"inconclusive: 39.8 µM [inhibitor, single point]"
